Data as given in the supplement of paper PMC3334620.
Whole data set: some 33,000 sequences, median “E-score (-0.5 to 0.5)” near -0.035, cut for the highest 2% near 0.34. The list shows a part of the results.

These sequences were tested against T1, Mot3 (UniProt P54785) (assay: PBM E-score (8-mer binding enrichment) (E-score (-0.5 to 0.5)); higher = stronger / more preferred TF binding; most listed sequences are background and not binding sites). Conditions: protein concentration: 200 nM; construct: GST-full length.
T1 sequence: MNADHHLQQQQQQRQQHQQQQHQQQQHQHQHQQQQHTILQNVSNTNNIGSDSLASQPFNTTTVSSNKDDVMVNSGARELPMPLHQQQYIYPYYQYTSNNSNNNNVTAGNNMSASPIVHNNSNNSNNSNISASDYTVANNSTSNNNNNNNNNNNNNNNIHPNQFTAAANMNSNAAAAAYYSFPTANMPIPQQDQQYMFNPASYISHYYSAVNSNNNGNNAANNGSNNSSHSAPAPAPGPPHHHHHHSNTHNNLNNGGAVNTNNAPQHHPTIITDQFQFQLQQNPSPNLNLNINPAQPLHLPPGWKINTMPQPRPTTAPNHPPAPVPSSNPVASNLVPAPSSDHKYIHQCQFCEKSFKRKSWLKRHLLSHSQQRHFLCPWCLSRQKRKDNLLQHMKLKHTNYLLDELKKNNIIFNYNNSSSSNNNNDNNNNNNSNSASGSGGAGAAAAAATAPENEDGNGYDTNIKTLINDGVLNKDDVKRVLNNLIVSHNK
Procedure, shortened: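 Using PURExpress in vitro transcription/translation, GST-tagged yeast transcription factors were made in full-length or DNA-binding-domain form. These were applied at about 100-200 nM to double-stranded universal all-10-mer Agilent arrays, and bound protein was detected with fluorescent anti-GST. Scans were normalised with masliner before the Universal PBM Analysis Suite assigned E-scores to ungapped eight-base words pooled with their reverse complements.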

In order of rising “PBM E-score” value:
1. GCCGGGAC  -0.394
2. AGGAGCGG  -0.334
3. CGGGTCCA  -0.325
4. GACCGTCA  -0.286
5. AGAGAGCA  -0.281
6. TCCCGCGA  -0.232
7. GCCCGCTA  -0.227
8. CCCCATTC  -0.212
9. CCCAGGAG  -0.207
10. AATGACCA  -0.203
11. GAAACTGC  -0.198
12. GACGCCGA  -0.175
13. GGCGAACC  -0.175
14. GCACTCTA  -0.17
15. GCCATCAC  -0.167
16. CATAGCCG  -0.163
17. CGAGGCTA  -0.161
18. CCCATTGA  -0.138
19. GGCGTCCA  -0.133
20. AGTCAAAC  -0.126
21. CCATACCG  -0.112
22. AAGTGTCC  -0.11
23. CGCCGTAG  -0.106
24. CCGCGCGG  -0.0907
25. CCACCAGC  -0.0857
26. GCTCCGCA  -0.0849
27. ACGGGATA  -0.0833
28. CCCTCGAA  -0.0832
29. GCATGACC  -0.071
30. CACTTTCA  -0.069
31. GCGTCGCA  -0.0675
32. CCAGGGCA  -0.0531
33. AGGGTGCG  -0.0487
34. CGTGCACA  -0.0446
35. CCCAGAAG  -0.0314
36. ATAAGGTC  -0.0271
37. CGGATCAG  -0.0263
38. ACCACTAC  -0.0199
39. TCGGAAAA  -0.00799
40. ATGCATTC  -0.00555
41. GAGATATC  -0.004
42. AGAATACT  -0.00299
43. CAAAACTC  0.0103
44. CGATACAA  0.0148
45. ACCAATAC  0.0216
46. ACTTATGC  0.0259
47. AGTTCGAC  0.0301
48. CAACCAGA  0.0325
49. ATAGGGCA  0.0327
50. TATGAATA  0.0344
51. ACGGGTAT  0.0437
52. CCTCGAGC  0.0444
53. AGTACTTA  0.057
54. ATCTTTGC  0.0607
55. AGCCAACG  0.0732
56. AGCCTTGG  0.0812
57. AGCGAACT  0.0821
58. CGAGTTCC  0.085
59. GTGCTAAA  0.0852
60. GACATATC  0.091
61. TGATGACA  0.0944
62. GCAACTTA  0.103
63. GATAAACA  0.106
64. AACGAGTT  0.117
65. CAACATCG  0.119
66. ATGTATGA  0.123
67. AACAGCAT  0.133
68. AACTAGTA  0.145
69. TAATCATA  0.156
70. CGAATTAC  0.166
71. CACAAATA  0.182
72. GCAAACAA  0.184
73. CAACTAAA  0.187
74. CAAGTAAC  0.193
75. ACATAGGG  0.2
76. CAGAACAA  0.206
77. CAACGTTG  0.211
78. AAGGCCAC  0.234
79. GGCAACTA  0.246
80. TTAACAAA  0.261
81. ACGTTTAA  0.27
82. AGTTAACA  0.279
83. GCTTTACA  0.325
84. ACAATACA  0.334
85. GTAAACAC  0.334
86. AGTACCTA  0.342
